Hit rate of the full screen: of about 420,000 compounds, about 75 (0.02%) were called active. This list was built around the results that the source calls inconclusive (neither active nor inactive); the mix of calls is not that of the screen. The call rests on the fitted dose curve; in most records, active means well fitted activation curve with a large enough effect; inconclusive means small, poorly fitted or top-dose-only effect; inactive means no such curve, though single readings can be large or run the other way. Where the call is inconclusive, the potency comes from a doubtful curve fit.
Assay: qHTS for Inducers of the Endoplasmic Reticulum Stress Response (ERSR) in Human Glioma: qHTS; further: nearly all actives have a fitted effect of over 35% in size; on activation: % of control where 0% means no effect
Settings: U87-MG GRP78 promoter luciferase reporter, 16 h; activation: active compounds read high
Procedure, shortened: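 ERSR induction read as luciferase luminescence (Bright-Glo, 10 min at room temperature) in stably transfected human U87-MG glioma cells exposed to compounds for 16 h, using GRP78 as sensor.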
Potency means the concentration at half of the fitted maximal effect; tags describe the fitted curve by direction and shape.

| SMILES | Potency | activation |
| --- | --- | --- |
| COc1cc2nc(Nc3ccc(F)cc3)nc(N)c2cc1OC | inconclusive: 39.8 µM [activator, partial curve, poor fit] |  |
| COc1ccc(-c2csc(N(CCCN(C)C)C(=O)c3ccccc3C)n2)cc1 |  | inactive: -5.81% |
| CCOC(=O)COc1ccc(S(=O)(=O)N2CCN(c3ccc(F)cc3)CC2)cc1 | inconclusive: 12.6 µM [activator, single point] |  |
| COc1cc(-c2nc3ccccn3c2/N=C/c2cccc(F)c2)ccc1O |  | inactive: -2.54% |
| CSc1ccccc1-c1nnc(-c2ccc(Cl)cc2Cl)o1 | inconclusive: 56.2 µM [activator, partial curve, poor fit] |  |
| COc1ccc(Cl)cc1C(=O)NCCc1ccc(S(=O)(=O)NC(=O)NC2CCCCC2)cc1 | inconclusive: 35.5 µM [activator, partial curve, poor fit] |  |
| COc1ccc(-c2nc(CNC(=O)NC3CCCCC3)c(C)o2)c(OC)c1 |  | inactive: 5.51% |
| Cc1cc(C(=O)Nc2nnc(-c3ccccc3)s2)no1 | inconclusive: 50.1 µM [activator, single point] |  |
| O=c1[nH]c2ccccc2c2oc(CCl)nc12 | inconclusive: 44.7 µM [activator, partial curve, poor fit] |  |
| O=C(N/N=C/c1ccc(O)c(O)c1)NC12CC3CC(CC(C3)C1)C2 | inconclusive: 22.4 µM [activator, single point] |  |
| Cc1ccc(SCCC(=O)Nc2cc(C)on2)cc1 | inconclusive: 50.1 µM [activator, single point] |  |
| O=C(/C=C/Nc1ccccc1F)c1cccs1 |  | inactive: -10.6% |
| CC(=NNc1nc2ccccc2o1)c1cc2ccccc2cn1 | inconclusive: 50.1 µM [activator, partial curve, poor fit] |  |
| COc1cccc(CN2CCc3nnc(CCc4ccccc4)n3CC2)c1OC |  | inactive: -0.291% |
| C=CCN1C(=O)/C(=c2\sc3nc(=O)c(Cc4ccccc4)nn3c2=O)c2ccccc21 |  | inactive: -3.84% |
| COc1ccc(-c2cc(NC(C)=O)c3ncc(-c4cccc(C(C)=O)c4)n3c2)cc1OC | inconclusive: 44.7 µM [activator, single point] |  |
| CC(C)OC(=O)CSc1nnc(COc2ccc([N+](=O)[O-])cc2)n1C | inconclusive: 39.8 µM [activator, partial curve, poor fit] |  |
| Cc1ccc(-n2nnnc2CNC(=O)c2ccc([N+](=O)[O-])o2)cc1C | inconclusive: 12.6 µM [activator, full curve, poor fit] |  |
| CC1=C(C(=O)OC2CCCCCC2)C(c2c(Cl)cccc2Cl)CC(=O)N1 (configuration not stated) | inconclusive: 50.1 µM [activator, single point] |  |
| CCc1c(C(=O)NNC(=S)Nc2ccc(S(=O)(=O)Nc3ncccn3)cc2)csc1C |  | inactive: 3.18% |
| CC(C)CSc1nsc(N)n1 | inconclusive: 12.6 µM [activator, partial curve, poor fit] |  |
| Cc1cccc(NC(=S)NCc2ccc3c(c2)cc(C)n3C)c1C |  | inactive: 3.05% |
| N#CC(C#N)=Cc1cc2ccccc2nc1N1CCCCC1 | inconclusive: 50.1 µM [activator, single point] |  |

| SMILES | Potency | activation |
| --- | --- | --- |
| O=C(O)Cc1c(Cl)ccc(Cl)c1Cl | inconclusive: 50.1 µM [activator, single point] |  |
| CCn1cc(C(=O)N2CCCC(CO)(Cc3ccccc3C)C2)cn1 (configuration not stated) | inconclusive: 44.7 µM [activator, single point] |  |
| CC1(C)C(=O)Nc2ccccc2N1C(=O)COc1cccnc1[N+](=O)[O-] | inconclusive: 28.2 µM [activator, single point] |  |
| CC(=O)N1CCc2c(sc3c2c(=O)n(-c2ccccc2)c(=O)n3Cc2cccc(C(F)(F)F)c2)C1 | inconclusive: 12.6 µM [activator, full curve] |  |
| CCc1nc(N2CCN(C(=O)c3ccco3)CC2)c(C#N)c2c1COC(C)(C)C2 |  | inactive: -2.32% |
| CC(C)(C)c1ccc(O)c(/C=N\O)c1 | inconclusive: 50.1 µM [activator, single point] |  |
| Cc1ccc2ccc3cc(C(=O)Nc4ccc(C)c(F)c4)nc3c2[nH]1 | inconclusive: 10 µM [activator, partial curve, poor fit] |  |
| CC(C)(C)C1CCc2c(C(=O)N/N=C/c3cccs3)csc2C1 (configuration not stated) | inconclusive: 11.2 µM [activator, partial curve, poor fit] |  |
| COC(=O)C1=C(C)N(Cc2ccc(C)cc2)C(=O)/C1=C\c1cc(OC)c(OC)c(OC)c1 | inconclusive: 44.7 µM [activator, partial curve, poor fit] |  |
| N#Cc1c(N)n(-c2ccc(N)cc2)c2nc3ccccc3nc12 |  | inactive: -6.75% |
| Cc1cc(NC(=O)c2ccco2)cc(-c2nc3cc(Cl)ccc3o2)c1O | inconclusive: 50.1 µM [activator, single point] |  |
| Oc1ccc(CN2CCN(c3ccccc3)CC2)c2cccnc12 |  | inactive: 3% |
| Cc1ccccc1NC(=O)C1C2C=CC(C3CC23)C1C(=O)O (configuration not stated) |  | inactive: -5.42% |
| COc1ccc(-c2nnc(SCc3ccccc3)n2N)cc1 | inconclusive: 10 µM [activator, single point] |  |
| CCc1ccc(-c2cc(C(F)(F)F)n3nc(C(=O)Nc4cnn(Cc5ccc(C)cc5)c4)cc3n2)s1 | inconclusive: 2.24 µM [activator, full curve, poor fit] |  |
| CC(C)C[C@H](NC(=O)c1nc[nH]c1C(=O)NCC(=O)OC(C)(C)C)C(=O)OCc1ccccc1 | inconclusive: 44.7 µM [activator, single point] |  |
| CCCc1[nH]nc2c1C(c1cn[nH]c1-c1ccc(F)cc1)C(C#N)=C(N)O2 (configuration not stated) | inconclusive: 50.1 µM [activator, single point] |  |
| CCOC(=O)c1sc(-c2ccccc2)cc1N | inconclusive: 3.55 µM [activator, partial curve, poor fit] |  |
| CC(C)N=c1scc(-c2ccco2)n1/N=C/c1ccc(O)c(O)c1 | inconclusive: 3.16 µM [activator, full curve, poor fit] |  |
| COCC(=O)n1nc(-c2ccccc2)nc1NCc1ccccc1 | inconclusive: 10 µM [activator, single point] |  |
| O=C(COC(=O)CNC(=O)c1ccc([N+](=O)[O-])o1)Nc1ncc(C(F)(F)F)cc1Cl | inconclusive: 10 µM [activator, full curve, poor fit] |  |
| O=C(NCC1CCCO1)c1cc(-c2ccccc2)on1 (configuration not stated) | inconclusive: 12.6 µM [activator, partial curve, poor fit] |  |
| Cc1noc(C)c1COc1ccc(C(=O)Nc2ncccc2O)cc1 | inconclusive: 25.1 µM [activator, partial curve, poor fit] |  |

| SMILES | Potency | activation |
| --- | --- | --- |
| COc1cc([C@@H]2c3cc4c(cc3[C@@H](O)[C@H]3COC(=O)[C@H]23)OCO4)cc(OC)c1O[Si](C)(C)C(C)(C)C |  | inactive: -13.3% |
| O=C(CCn1cncn1)NCC1Cc2cc(-c3ccsc3)cc(Cl)c2O1 (configuration not stated) |  | inactive: 0.377% |
| Fc1ccc(-n2cc(CNCCc3cccnc3)c(-c3ccccc3Cl)n2)cc1 |  | inactive: -3.14% |
| COc1ccc(-c2cc(NC(C)=O)c3ncc(-c4ccccc4)n3c2)cc1OC | inconclusive: 22.4 µM [activator, single point] |  |
| CCc1nc(NCCCn2ccnc2)c2oc3ccccc3c2n1 |  | inactive: 1.23% |
| OCCNc1nc(Nc2ccccc2)nc2ccccc12 | active: 31.6 µM |  |
| CCSC1(SCC)N=C(N)C2(C#N)C(c3ccccc3)NC(C)=CC12C#N (configuration not stated) | inconclusive: 31.6 µM [activator, partial curve] |  |
| N#CCc1c(C#N)c(N)nc(Nc2ccccc2)c1C#N | inconclusive: 50.1 µM [activator, single point] |  |
| Cc1ccc(S(=O)(=O)Nc2ccc(O)c3ncccc23)cc1 |  | inactive: -1.47% |
| CCOc1cc(/C=C(/C#N)c2ccc(F)cc2)ccc1OCc1ccc(C(=O)O)o1 | inconclusive: 22.4 µM [activator, single point] |  |
| CCC1CCCCN1C(=O)Nc1cccc(NC(=O)N2CCCCC2CC)c1 (configuration not stated) | inconclusive: 50.1 µM [activator, single point] |  |
| O=C(COc1ccccc1Cl)Nc1ccc(-c2nc3ccccc3s2)cc1 |  | inactive: 0.967% |
| COc1cccc(NC(=O)CCC2CCN(C(=O)c3cncs3)CC2)c1 |  | inactive: -0.828% |
| COc1cc(CN2CCc3ccccc3C2)ccc1O | inconclusive: 22.4 µM [activator, single point] |  |
| O=C(NCC1CCCO1)C1c2ccccc2C(=O)N1C1CCCCCC1 (configuration not stated) |  | inactive: -2.48% |
| COc1ccccc1NC(=O)Nc1nnc(C(C)c2ccccc2)s1 (configuration not stated) | inconclusive: 50.1 µM [activator, single point] |  |
| CCn1c(Cc2cccc3ccccc23)nnc1SCC(=O)Nc1nccs1 |  | inactive: -0.394% |
| COC(=O)c1ccc(NC(=O)Nc2ccc(F)c(Cl)c2)cc1 |  | inactive: 1.15% |
| COc1cn(-c2ccccc2)nc1C(=O)Nc1ccc(C)cc1Cl | inconclusive: 28.2 µM [activator, single point] |  |
| CC(=O)c1ccc(N2CCN(S(=O)(=O)c3ccc4c(c3)C(Cl)(Cl)C(=O)N4)CC2)cc1 | inconclusive: 28.2 µM [activator, single point] |  |
| Cc1cnc(CNc2ccnc(-c3ccccc3C(F)(F)F)n2)cn1 |  | inactive: -5.58% |

— PubChem BioAssay AID602332 (National Center for Advancing Translational Sciences (NCATS), 2012)
